Source: PMC12040169 (PLOS Biology, 2025)
This is one part of the list.

Test system: T1, C. trachomatis L2/434/Bu expressing GFP (CTL2-GFP)
T1 construct: L2/434/Bu GFP intracellular growth in HeLa cells
Parameters: species or system HeLa; C. trachomatis total inclusion area by high-content imaging, normalised to DMSO
Details: total inclusion area; 28.5 h, 10 µM; inhibitor
Procedure, shortened: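 High-content images of fixed, Hoechst-stained infected cultures supply inclusion area and count (growth) plus nuclei number (viability), complementing bulk GFP/resorufin fluorescence. MIC determination is unchanged from the primary assay.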

| SMILES | % of control remaining |
| --- | --- |
| Cc1cccc(C(C)C)c1NC(=O)C1Cc2ccccc2CN1S(=O)(=O)c1ccc(F)cc1 (stereo not drawn) [CBK267992] | 90.098 |
| CCN1CCN(S(=O)(=O)c2ccccc2F)CC1 [CBK100558] | 77.7487 |
| COc1ccccc1Cc1cccc(C2CCN(C(=O)Cc3ccccc3)CC2)n1 [CBK286240] | 76.8699 |
| Cc1cccc(CN2CCN(c3ccccc3C(O)c3nccn3C)CC2)c1 (stereo not drawn) [CBK286441] | 90.2832 |
| O=c1[nH]c(-c2ccccc2)nc2c1CN(Cc1ccc(F)cc1)CC2 [CBK282329] | 96.8069 |
| Cc1nn(CCC(=O)NCc2ccco2)c(C)c1Cl [CBK269961] | 88.1741 |
| Cc1noc(C)c1CNS(=O)(=O)N1CCOC(c2ccccc2)C1 (stereo not drawn) [CBK305306] | 80.5067 |
| COC(=O)c1c(NC(=O)C2C3C=CC(C3)C2C(=O)O)sc2c1CCCCC2 (stereo not drawn) [CBK262653] | 104.004 |
| CSCc1nc(CS(=O)(=O)Cc2cccc(C(F)(F)F)c2)no1 [CBK023617] | 115.844 |
| O=C(O)c1cccc2c1Sc1ccccc1O2 [CBK017129] | 28.4208 |
| CC(=O)Oc1cc(C)cc(C#N)c1 [CBK038296] | 82.893 |
| Cc1ccc(C(=O)NC(=S)Nc2ccc(-c3ccc(CO)o3)cc2)cc1[N+](=O)[O-] [CBK269127] | 109.493 |
| S=c1nc(-c2ccccc2)n2cc(Br)ccc2n1 [CBK026696] | 87.7765 |
| O=C(O)c1ccc(N2CCCCS2(=O)=O)cc1Cl [CBK287142] | 93.7274 |
| Cc1ccc(-c2nn(CCC#N)cc2C(=O)N2CCCCC2)cc1 [CBK306119] | 77.6956 |
| CCOc1ccsc1C(=O)Nc1cc2ccccc2c(N2CCNCC2)n1 [CBK036341T] | 96.3839 |
| CN1C(=O)c2ccccc2C(=O)[C@@]2(C)CN(C3CCCC3)C[C@@H]12 [CBK283476] | 74.5826 |
| CC(=O)c1cccc(NC(=O)Nc2ccc(S(=O)(=O)Nc3cc(C)on3)cc2)c1 [CBK299794] | 54.2185 |
| Cn1nc(C2CCN(C(=O)CCc3ccccc3)CC2)c2cccnc21 [CBK285050] | 67.9097 |
| O=C(NCCN1CCOCC1)NCC12CC3CC(C1)CC(c1ccccc1)(C3)C2 [CBK268388] | 94.0879 |
| S=C(Nc1ccccc1)N1CCCCC1CN1CCCCC1 (stereo not drawn) [CBK006196] | 73.4114 |
| COCc1nc2ccccc2n1CC(=O)N1CCC(c2ccccc2)C1 (stereo not drawn) [CBK282211] | 103.664 |
| Cc1cccc(C(=O)Nc2c(C(=O)Nc3ccc(Br)cc3)cnn2-c2ccccc2)c1 [CBK264839] | 84.38 |
| O=C(CSc1nncc(=O)[nH]1)NCc1ccccc1 [CBK270246] | 108.924 |
| Cc1nonc1/N=N/N(CC(=O)N1CCOCC1)c1nonc1C [CBK262399] | 90.5472 |
| CCOC(=O)N(C)c1c(CC)nc2c(OCC(=O)C(C)(C)C)cccn12 [CBK147382] | 94.5587 |

| SMILES | % of control remaining |
| --- | --- |
| CCOC(=O)CN1CCN(S(=O)(=O)c2ccc(F)c(Cl)c2)CC1 [CBK043782] | 88.3368 |
| CS(=O)(=O)N(CC(=O)Nc1ccccc1-c1ccccc1)c1ccc(F)c(Cl)c1 [CBK268539] | 94.5038 |
| Cc1cc(NC(=O)CSc2nc(-c3ccc(F)cc3)cc(C(F)(F)F)n2)n(-c2ccccc2)n1 [CBK266248] | 138.943 |
| COc1ccc(C(C)C)cc1-c1cncc(Nc2ccc(Cl)cc2)n1 [CBK065285] | 97.905 |
| O=C(N[C@H]1CO[C@H]2[C@@H]1OC[C@@H]2Nc1nccc(-c2cccc(F)c2)n1)C1CC1 [CBK289535] | 96.2899 |
| CC1CCN(Cc2ccc(-c3nnn(CC(=O)NCc4ccc(S(N)(=O)=O)cc4)n3)cc2)CC1 [CBK144141C] | 103.097 |
| O=C(O)c1cccc(-n2ncc(-c3ccccc3C(F)(F)F)n2)c1 [CBK112721] | 89.9121 |
| CCCc1nn(CC(=O)N(C)C)c(=O)c2cc3ccsc3n12 [CBK284193] | 80.7382 |
| CC1CCc2c(sc(NC(=O)c3ccccc3)c2CN2CCCC2)C1 (stereo not drawn) [CBK265908] | 117.447 |
| Oc1cc(C(F)(F)F)nc(NCc2cccc3ccccc23)n1 [CBK003716] | 71.878 |
| CCOC(=O)c1cccc(-n2cc(-c3ccc(Br)cc3F)nn2)c1 [CBK113153] | 87.1805 |
| COc1cc(/C=N\NC(=O)CSc2nc3ccccc3o2)ccc1O [CBK263630] | 107.916 |
| Cc1c(C(=O)N2CCC[C@H]2[C@H](O)c2nccs2)oc2ccccc12 [CBK284281] | 48.7087 |
| Cc1nn(CC(=O)N2CCN(Cc3ccccn3)CC2)c(C)c1Cl [CBK305978] | 69.6893 |
| CCN(CCO)c1ccc(Nc2cc(-c3cc(C(F)(F)F)cc(C(F)(F)F)c3)ncn2)cc1 [CBK090994] | 131.945 |
| CN(C)C1CCN(C(=O)c2ccc(-c3cnc(OCC4CCN(C(=O)OC(C)(C)C)CC4)nc3)cc2)C1 (stereo not drawn) [CBK169767] | 71.3174 |
| CC(C)(C)Oc1nc(=O)[nH]c(=O)[nH]1 [CBK007194] | 17.4774 |
| CN(C)CCn1nc(-c2cccc(-n3cccc3)c2)oc1=O [CBK284002] | 88.0447 |
| COc1cccc(C(=O)NCCC(=O)N2CCCC(c3ncc[nH]3)C2)c1 (stereo not drawn) [CBK306864] | 78.2694 |
| CC1Cc2cc(-c3cc4ccccn4c3)ccc2N1S(C)(=O)=O (stereo not drawn) [CBK285227] | 98.3475 |
| CS(=O)(=O)c1ccc(CN2CCOC3(CCN(C(=O)c4ccc5ccccc5c4)CC3)C2)cc1 [CBK161122A] | 58.9409 |
| CC(=O)NCC1OCCc2ccccc21 (stereo not drawn) [CBK026449] | 91.8412 |
| CCOCCn1c(CN2CCCCC2)nc2c1c(=O)n(C)c(=O)n2C [CBK306028] | 92.6327 |
| CCOC(=O)c1[nH]c2ccccc2c1NS(=O)(=O)c1ccc(C)c([N+](=O)[O-])c1 [CBK047427] | 87.3341 |
| CC(C)(c1noc(C2CCOCC2)n1)S(=O)(=O)c1ccc(Br)cc1 [CBK305543] | 97.7814 |
| COc1ccc(OC(=O)C2CCN(C(=O)CC(C)C)CC2)c([N+](=O)[O-])c1 [CBK154770] | 96.2001 |

| SMILES | % of control remaining |
| --- | --- |
| CNC(=O)c1cccc(NC(=O)c2cc(-c3cccnc3)cnc2NCc2ccc3c(c2)OCO3)c1 [CBK076291] | 66.9605 |
| O=C(c1ccc2[nH]c(=O)[nH]c2c1)N1CCC2(CCNC2)C1 (stereo not drawn) [CBK156747C] | 79.2915 |
| COC(=O)c1cc(OC)c(OC)cc1NC(=S)N1CCC(C(N)=O)CC1 [CBK268507] | 145.201 |
| CCCN(CCC)C(=O)c1nc(C)c(C(=O)N(CCC)CCC)nc1C [CBK023232] | 86.3587 |
| COc1ccc(-n2ncc3c2CCCN(C(=O)C2CC2)C3)cc1 [CBK284498] | 103.504 |
| CCOC(=O)C1CCN(Cn2nc(O)ccc2=O)CC1 [CBK263331] | 106.685 |
| O=C(c1ccoc1)N1CCC2(CCCN(Cc3cc(=O)[nH]c(=O)[nH]3)C2)C1 (stereo not drawn) [CBK132823] | 119.604 |
| CN(CC(=O)Nc1ccc(Cl)c(C(F)(F)F)c1)C(=O)c1cc(O)nc2ccccc12 [CBK295304] | 76.4936 |
| O=C(Cc1ccc(Cl)cc1Cl)Nc1ccc(-c2nnc3n2CCCCC3)cc1 [CBK296949] | 101.772 |
| Cc1cc(C(=O)COc2cccc(-n3cnnn3)c2)c(C)n1C(C)c1ccccc1 (stereo not drawn) [CBK295643] | 83.3268 |
| c1csc(CNc2nccnc2-c2cccs2)c1 [CBK036602] | 89.3665 |
| CCS(=O)(=O)NC1CC(C)(C)Cc2c1cnn2-c1ccc(OC)cc1 (stereo not drawn) [CBK306656] | 85.2742 |
| O=[N+]([O-])c1ccc(CN2CCN(Cc3ccc4c(c3)OCO4)CC2)o1 [CBK074557] | 78.1274 |
| O=C(Cc1noc2ccccc12)Nc1ccc(N2CCCS2(=O)=O)cc1 [CBK304521] | 74.8639 |
| O=C(c1cccc2[nH]ccc12)N1CCCC2(CCN(Cc3ccccc3)C2)C1 (stereo not drawn) [CBK136887] | 99.4861 |
| CCN(Cc1ccccc1)C(=O)NCCc1c[nH]c2ccc(OC)cc12 [CBK155226] | 92.1891 |
| O=S(=O)(NCc1ccccc1)c1cccc(S(=O)(=O)NCc2ccccc2)c1 [CBK263250] | 122.454 |
| COc1ccc(OCC(O)CN2CCN(c3ccccn3)CC2)cc1 (stereo not drawn) [CBK278239C] | 102.074 |
| CC(=O)Nc1ccc(-c2cncc(Nc3ccc(F)c(Cl)c3)n2)cc1 [CBK065765] | 124.212 |
| CCc1nc2c(OCCCN(C)S(C)(=O)=O)cccn2c1N(C)C(=O)c1ccco1 [CBK147435] | 101.441 |
| O=c1[nH]c(=O)c2cc(S(=O)(=O)NC3CCN(Cc4ccccc4)C3)ccc2[nH]1 (stereo not drawn) [CBK286380] | 95.7435 |
| CC(CN1CCN(Cc2ccccc2)CC1)N(C(=O)c1ccoc1)c1ccccn1 (stereo not drawn) [CBK074861C] | 95.8555 |
| CCn1c(SCc2cc(C)no2)nnc1C1CC1 [CBK297758] | 105.844 |
| CN1C[C@@H](NS(C)(=O)=O)C[C@H]1c1nc(-c2ccc3c(c2)OCO3)no1 [CBK288875] | 106.75 |
| O=S(=O)(Nc1cccnc1N1CCOCC1)c1ccc(F)cc1 [CBK051009] | 45.1083 |
| CCc1noc(C)c1C(=O)N1CC(C(=O)N2CCN(c3ccccc3)CC2)C1 [CBK285667] | 107.583 |
